# Source: PubChem BioAssay (NCATS)
# The inconclusive results got no clear call from the source; some entries with a clear call stand among them for comparison. For some assays here: Potencies beside an inconclusive call are fits to weak or partial responses and may not hold up. Activity calls are given as the source filed them. Calls come from the whole dose curve; as a rule, active = well fitted curve in the direction sought with a large enough effect; inconclusive = small, poorly fitted or top-dose-only effect, or another doubt; inactive = no such curve, though single readings can be large; an effect the other way counts as inactive or inconclusive.
# Tests used:
# [1] = Viability qHTS for spleen associated tyrosine kinase inhibitor (SYKi) naive MV4-11 cells (AID 1963823); conditions: MV4-11 AML viability, CellTiter-Glo luminescence, 72 h; series mostly up to 45 µM; note: nearly all actives have a fitted effect of over 40% in size
# Outline: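 qHTS, SYK inhibitor-naive MV4-11; 500 cells/well; 72 hr compound exposure, 37 C; CellTiter-Glo added, 10 min RT; luminescence read.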
# [2] = Quantitative highthroughput screen to assess conditional lethalithy of NOMO1 cells grown in RPMI1640 with untreated serum (RPMI+s) (AID 1963876); conditions: NOMO1 AML cells in RPMI+serum, CellTiter-Glo viability, 48 h; viability: at 45.8 µM (top of the series); note: nearly all actives have a fitted effect of over 35% in size
# Outline: (§1)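 Each medium arm—HPLM with 10% dialyzed FBS, or RPMI1640 with 5 mM glucose and 10% untreated or dialyzed FBS—was screened against an 11-point, 3-fold compound titration for 48 h at 37 °C, with CellTiter-Glo luminescence as endpoint.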
# [3] = Quantitative highthroughput screen to assess conditional lethalithy of P12 Ichikawa cells grown in Human Plasma-Like Medium with dialyzed fetal bovine serum (HPLM+ds) (AID 1963879); conditions: ATP luminescence, 48 h; Potency: viability; series mostly up to 45.8 µM; note: nearly all actives have a fitted effect of over 35% in size
# Outline: as §1
# [4] = Quantitative highthroughput screen to assess conditional lethalithy of P12 Ichikawa cells grown in RPMI1640 with dialyzed fetal bovine serum (RPMI+ds) (AID 1963880); conditions: ATP luminescence, 48 h; Potency: P12-Ichikawa viability; series mostly up to 45.8 µM; note: nearly all actives have a fitted effect of over 35% in size
# Outline: as §1
# [5] = Quantitative highthroughput screen to assess conditional lethalithy of P12 Ichikawa cells grown in RPMI1640 with untreated serum (RPMI+s) (AID 1963881); conditions: ATP luminescence, 48 h; Potency: viability; series mostly up to 45.8 µM; note: nearly all actives have a fitted effect of over 35% in size
# Outline: as §1
# [6] = Quantitative highthroughput screen to assess conditional lethalithy of SEM cells grown in RPMI1640 with unreated serum (RPMI+s) (AID 1963883); conditions: SEM B-ALL cells, CellTiter-Glo viability, 48 h; viability: at 45.8 µM (top of the series); note: nearly all actives have a fitted effect of over 35% in size
# Outline: as §1
# [7] = Quantitative highthroughput screen to assess conditional lethalithy of NOMO1 cells grown in Human Plasma-Like Medium with dialyzed fetal bovine serum (HPLM+ds) (AID 1963878); conditions: NOMO1 AML cells in HPLM+ds, CellTiter-Glo viability, 48 h; viability: at 45.8 µM (top of the series); note: nearly all actives have a fitted effect of over 35% in size
# Outline: as §1
# [8] = Quantitative highthroughput screen to assess conditional lethalithy of SEM cells grown in RPMI1640 with dialyzed fetal bovine serum (RPMI+ds) (AID 1963884); conditions: SEM B-ALL cells, RPMI+dialyzed FBS, CellTiter-Glo viability, 48 h; viability: at 45.8 µM (top of the series); note: nearly all actives have a fitted effect of over 35% in size
# Outline: as §1
# [9] = Quantitative highthroughput screen to assess conditional lethalithy of SEM cells grown in Human Plasma-Like Medium with dialyzed fetal bovine serum (HPLM+ds) (AID 1963882); conditions: SEM B-ALL cells in HPLM+ds, CellTiter-Glo viability, 48 h; series mostly up to 45.8 µM; note: nearly all actives have a fitted effect of over 35% in size
# Outline: as §1
# [10] = Cellular viability qHTS for adrenocortical cancer (ACC) cell line NCI-H295R (AID 1963990); conditions: CellTiter-Glo ATP luminescence, 48 h; series mostly up to 46.1 µM; note: nearly all actives have a fitted effect of over 60% in size
# Outline: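 Readout: CellTiter-Glo luminescence, 20 min RT. Exposure: 48 h, 37C/5% CO2. Cells: NCI-H295R, ITS-DMEM serum-free. Range: up to 46 uM. Analysis: 4PL fit, IC50 plus efficacy.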
# Potency is the fitted concentration of half-maximal effect; tags give direction and shape of the fitted curve.
Compound,Potency [1],Potency [2],Potency [3],Potency [4],Potency [5],Potency [6],Potency [7],Potency [8],Potency [9],Potency [10]
O=C(NCc1ccccc1)c1csc(Nc2ccncn2)n1,"inconclusive: 14.6 µM [cytotoxic, partial curve]",active: 3.32 µM,active: 6.62 µM,active: 3.72 µM,active: 3.32 µM,active: 0.833 µM,,,,
CC(C)C[C@H](NC(=O)[C@H](CCc1ccccc1)NC(=O)CN1CCOCC1)C(=O)N[C@@H](Cc1ccccc1)C(=O)N[C@@H](CC(C)C)C(=O)[C@@]1(C)CO1,"inconclusive: 0.0084 µM [cytotoxic, full curve]",active: 0.0372 µM,,active: 0.0235 µM,,active: 0.0083 µM,active: 0.0372 µM,active: 0.0132 µM,,
Clc1ccc(C(c2ccc(Cl)cc2)n2cc[n+](CC(OCc3ccc(Cl)cc3Cl)c3ccc(Cl)cc3Cl)c2)cc1 (stereo unspecified),"inconclusive: 1.66 µM [cytotoxic, full curve]",active: 20.9 µM,"inconclusive: 14.8 µM [cytotoxic, partial curve]","inconclusive: 20.9 µM [cytotoxic, partial curve]",,,,,active: 16.6 µM,
CC(O)(C#Cc1ccc2c(c1)N(c1nc(N)ncc1Cl)CC2)c1nccs1 (stereo unspecified),active: 13 µM,inactive,,"inconclusive: 20.9 µM [cytotoxic, partial curve, poor fit]","inconclusive: 26.4 µM [cytotoxic, single point]","inconclusive: 23.5 µM [cytotoxic, single point]",inactive,inactive,"inconclusive: 33.2 µM [cytotoxic, single point]","inconclusive: 17.8 µM [cytotoxic, partial curve]"
